The campaign covered roughly 310,000 compounds. About 14,000 (4.5%) showed an effect of 50% or more. The effect is printed as a negative number. Some of the results follow.
target: human ether-à-go-go-related gene (hERG) potassium channel (human, UniProt Q12809); experiment: primary screen, population patch clamp on CHO cells stably expressing hERG
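Also: peak tail current of the secondary pulse compared with the same well before compound.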

human ether-à-go-go-related gene (hERG) potassium channel, sequence (Q12809 whole entry, looked up): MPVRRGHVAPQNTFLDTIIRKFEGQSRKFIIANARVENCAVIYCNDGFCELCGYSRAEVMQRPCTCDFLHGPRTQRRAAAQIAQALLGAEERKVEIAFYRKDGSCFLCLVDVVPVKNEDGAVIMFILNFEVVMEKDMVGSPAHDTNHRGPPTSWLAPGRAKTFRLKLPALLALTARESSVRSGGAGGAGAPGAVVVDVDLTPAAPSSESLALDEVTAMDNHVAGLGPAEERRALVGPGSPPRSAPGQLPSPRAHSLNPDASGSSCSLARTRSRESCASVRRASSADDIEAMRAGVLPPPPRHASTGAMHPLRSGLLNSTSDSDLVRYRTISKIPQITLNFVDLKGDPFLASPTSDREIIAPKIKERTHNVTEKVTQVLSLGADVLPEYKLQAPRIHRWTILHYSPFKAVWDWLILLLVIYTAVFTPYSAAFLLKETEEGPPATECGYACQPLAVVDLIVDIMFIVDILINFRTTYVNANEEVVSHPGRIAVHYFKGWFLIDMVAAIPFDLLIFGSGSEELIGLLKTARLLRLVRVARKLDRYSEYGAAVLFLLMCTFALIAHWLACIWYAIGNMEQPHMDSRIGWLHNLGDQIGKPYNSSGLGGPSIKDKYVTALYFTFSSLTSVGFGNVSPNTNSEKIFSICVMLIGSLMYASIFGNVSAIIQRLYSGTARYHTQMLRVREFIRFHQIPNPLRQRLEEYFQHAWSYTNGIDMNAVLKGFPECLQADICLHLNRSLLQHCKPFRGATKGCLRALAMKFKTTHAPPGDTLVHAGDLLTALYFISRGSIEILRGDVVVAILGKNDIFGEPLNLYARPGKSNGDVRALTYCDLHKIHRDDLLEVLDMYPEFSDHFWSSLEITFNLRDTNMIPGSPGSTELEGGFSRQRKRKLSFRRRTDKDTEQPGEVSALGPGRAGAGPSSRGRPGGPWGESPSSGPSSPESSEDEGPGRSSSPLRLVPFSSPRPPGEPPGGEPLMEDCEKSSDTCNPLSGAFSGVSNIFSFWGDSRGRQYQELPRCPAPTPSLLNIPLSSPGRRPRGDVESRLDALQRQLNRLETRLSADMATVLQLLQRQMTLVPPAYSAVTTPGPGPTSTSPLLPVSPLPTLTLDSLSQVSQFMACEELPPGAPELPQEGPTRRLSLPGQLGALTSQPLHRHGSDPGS

In order of falling “hERG current change (%, negative = inhibition) at 10uM” value:
1. S=c1[nH]nc(C2CC2)n1Cc1ccccc1  67.3%
2. COc1ccc(Cn2c(=S)[nH]c3cc(C(=O)N4CCN(c5ccccc5)CC4)ccc3c2=O)cc1  33.8%
3. Nc1c2c(nc3cccc(Cl)c13)N(c1ccccc1)CC2  31.7%
4. Cc1nnc(NC(=O)CCSCCC(=O)Nc2nnc(C)s2)s1  22.7%
5. O=C(Nc1nnc(-c2cccs2)s1)C1CC1  22.7%
6. O=C(Cc1ccccc1F)OCN1C(=O)c2ccccc2C1=O  21.5%
7. NC(=O)N/N=C/C=C/c1ccccc1  21.4%
8. COc1cccc(C(=O)COc2ccc3ccc(=O)oc3c2)c1  21.4%
9. Cc1ccnc(NC(=O)/C=C/c2ccccc2[N+](=O)[O-])c1  21.3%
10. CCCc1nnc(NC(=O)c2c(O)c3cccc4c3n(c2=O)CC4)s1  19.5%
11. CC(C)N1CCN(Cc2nc3c(s2)CCCC3)CC1CCO (stereo not shown)  18.9%
12. COc1ccc(CCn2c(O)c(C=NCCCO)c(=O)[nH]c2=O)cc1OC  18.3%
13. COc1cc(C(=O)Nc2nc3ccccc3[nH]2)ccc1OC(F)F  18%
14. COc1cccc(C(=O)Oc2cc(C)[nH]c(=O)c2[N+](=O)[O-])c1  18%
15. N#C/C(=C\c1ccc([N+](=O)[O-])cc1)c1ccccn1  17.7%
16. CCC(C)NC(=O)c1nc2c(nnn2Cc2ccccc2Cl)c(=O)[nH]1 (stereo not shown)  16.8%
17. CCOc1ccc(/C=C/c2c([N+](=O)[O-])c(=O)n(C)c(=O)n2C)cc1  15%
18. Cc1cccc(NC(=O)CN2C(=O)CSC2=O)c1  14.5%
19. CCCC1(CCC)C(=O)NC(=Nc2ccccc2)NC1=O  13.5%
20. Cn1c(N)c(C(=O)COC(=O)C2CC(O)CN2S(=O)(=O)c2ccc(Cl)cc2)c(=O)n(C)c1=O (stereo not shown)  12.8%
21. Oc1ccc(-c2nccc(-c3ccccn3)n2)cc1  12.2%
22. O=C(NCCOc1ccccc1)c1n[nH]c(=O)c2ccccc12  12.1%
23. CCOc1ccc(C2C(C#N)=C(N)Oc3nc[nH]c(=O)c32)cc1OC (stereo not shown)  11.4%
24. C=CCOc1ccc(C(c2c(O)nc(SC)[nH]c2=O)c2c(O)nc(SC)[nH]c2=O)cc1  11.2%
25. CCOC(=O)c1[nH]c(C)c(C(=O)OCC(=O)N2CCCCC2C)c1C (stereo not shown)  11.1%
26. CC(c1ccco1)N(C(=O)Nc1ccccc1)C1CCCCC1 (stereo not shown)  11.1%
27. CC(C)NC(=O)c1nc2ccccc2s1  10.3%
28. CC1(C)CC2(C)OC(=N)C1(C#N)C2(C#N)C#N (stereo not shown)  10.2%
29. COc1ccccc1OCC(=O)Nc1ccc(S(=O)(=O)Nc2cc(C)nc(C)n2)cc1  10%
30. CCc1c(C)sc(NC(=S)NC(C)C2CCCO2)c1C(=O)OC (stereo not shown)  9.87%
31. COC(=O)Cc1ccc(NC(=S)NCCCN2CCOCC2)cc1  9.54%
32. COC(=O)CNc1nc(-c2cccnc2)nc2ccccc12  8.89%
33. Cc1ccc(-c2cc(C(=O)NCc3cnn(C)c3C)c3cc(Br)ccc3n2)cc1  8.76%
34. CC1Cc2ccccc2N1C(=O)Cn1cnc2ccccc21 (stereo not shown)  8.2%
35. Cc1cnc(NC(=O)C2CC(=O)N(c3cccc(Cl)c3)C2)s1 (stereo not shown)  7.56%
36. O=C(/C=C/c1ccc(Br)cc1)c1ccc(NC(=O)c2ccco2)cc1  7.51%
37. CC(=O)Nc1ccc(NC(=O)COc2ccc(-c3ccc(C#N)cc3)cc2)cc1  6.87%
38. C=CCn1c(=O)c2c(nc(-c3ccc(S(=O)(=O)O)cc3)n2C)n(C)c1=O  6.59%
39. COc1cc(NC(=O)CCc2nnc3ccc(N4CCCC4)nn23)cc(OC)c1OC  6.49%
40. Nc1nnnn1/N=C/c1cccc(Oc2ccccc2)c1  6.28%
41. Cc1ccc2nc3c(cc2c1)c(NC(=O)C(C)(C)C)nn3CC(C)C  5.96%
42. CC(C)(C)c1ccccc1NC(=O)CN1C(=O)NC(Cc2ccccc2)C1=O (stereo not shown)  4.43%
43. CC1CCC2=NN(C(=O)c3ccco3)C(O)(C(F)(F)F)C2C1 (stereo not shown)  4.08%
44. CCOC(=O)COc1ccc(S(=O)(=O)NCC2CCCO2)cc1 (stereo not shown)  3.8%
45. Cc1ccc(C)c(S(=O)(=O)NCc2ccc3c(c2)OCO3)c1  2.42%
46. CCN(CC)CCCN1C(=O)C(=O)/C(=C(/O)c2ccc(C)cc2)C1c1ccccn1 (stereo not shown)  2.21%
47. CCO[C@H]1OC(C(=O)NC2CC2)=C[C@@H](c2c[nH]c3ccccc23)[C@@H]1CCCO  2.14%
48. Cc1cc(C)n2c(SCC(=O)N(C)C3CCS(=O)(=O)C3)nnc2n1 (stereo not shown)  1.58%
49. Cc1cccc(N2CCN(C(=O)C3CCC(=O)N(C4CC4)C3)CC2)c1C (stereo not shown)  0.967%
50. CCn1c(SCC(N)=O)nnc1-c1ccc2[nH]c(C)c(C)c2c1  0.594%
51. O=C(Nc1ccc(Cl)c(Cl)c1)N1CCSCC1  0.506%
52. O=C(OCc1nnc(-c2ccccc2)o1)C1=COCCO1  0.0738%
53. CCC(=O)Nc1cc2nn(-c3ccc(OC)cc3)nc2cc1C  0.0727%
54. COc1ccc(-c2nnc3ccc(SCC(=O)Nc4nc5ccc(C)cc5s4)nn23)cc1OC  -0.00742%
55. Cc1ccc2c(c1)N(CC(=O)O)C(=O)CO2  -3.05%
56. CCn1c(=O)c2sccc2n2c(CCCC(=O)NCCc3ccc(S(N)(=O)=O)cc3)nnc12  -4.96%
57. CCc1noc(C)c1C(=O)OCC(=O)Nc1cccc(C)c1  -6.43%
58. Cc1ccc(C(=O)N2CCc3ccccc32)cc1[N+](=O)[O-]  -6.55%
59. Cc1cccc(N(C)S(=O)(=O)c2ccc3c(c2)C(C)(C)C(=O)N3C)c1  -8.42%
60. CC(C)(C)C(=O)N1CCN(c2nc3ccc(Br)cc3s2)CC1  -8.45%
61. Cc1cc(C(=O)CSc2nnnn2C)c(C)n1-c1ccc2c(c1)OCCO2  -11.3%
62. COc1ccccc1N1CCN(CC(=O)Nc2ccc(CN3CCCCC3)cc2)CC1.Cl  -11.5%
63. Cc1cc2nc(CCN(Cc3cccnc3)C(=S)Nc3ccccc3)[nH]c2cc1C  -11.5%
64. CN1C(=O)C2(c3ccccc31)N(C)CC(c1ccccn1)C21SC(=S)N(Cc2ccco2)C1=O (stereo not shown)  -11.6%
65. Cc1ccccc1NC(=O)c1cccc(C(F)(F)F)c1  -11.7%
66. CN(C)C(=O)c1ccc(Nc2nc(-c3cccs3)nc3ccccc23)cc1  -11.9%
67. O=C(CSc1nnc(-c2ccco2)n1Cc1ccco1)N1CCOCC1  -12%
68. CCCCC(=O)Oc1c(S(=O)(=O)c2ccc(C)cc2)c(C)nn1C(C)(C)C  -12.5%
69. COc1ccc(OC)c(NC(=O)CSc2nnc3ccc(-c4ccccn4)nn23)c1  -12.9%
70. CCCN(CC(=O)Nc1ccc(F)c(F)c1F)C(=O)Cc1ccc(S(=O)(=O)N2CCOCC2)s1  -13.6%
71. COc1ccc(OC)c(NC(=O)c2cccc(Cn3cc(Br)c([N+](=O)[O-])n3)c2)c1  -13.9%
72. CCOc1ccc(NC(=O)CCNS(=O)(=O)c2ccc(Br)s2)cc1  -13.9%
73. COc1ccc(OCc2nn3c(Cn4cnc5ccccc54)nnc3s2)cc1  -21.6%
74. COc1ccc(-n2c(Cc3cccn3C)nnc2SCC(=O)NC2CCCC2)cc1  -23.2%
75. O=C(Nc1ccccc1C(=O)OC1CCOC1=O)c1ccco1 (stereo not shown)  -24.1%
76. CCCCn1c(O)c(C(CC)=NCCCN(C)C)c(=O)[nH]c1=O  -29.2%
77. CC(NC(=O)CSc1nc(C2CC2)n(-c2ccccc2)n1)c1ccco1 (stereo not shown)  -29.9%
78. O=C(CC(c1ccccc1)c1cc(Br)ccc1O)NCCCN1CCOCC1 (stereo not shown)  -31.3%
79. O=C(NCC(c1cccs1)N1CCOCC1)C1CCN(S(=O)(=O)c2ccccc2C(F)(F)F)CC1 (stereo not shown)  -33.4%
80. COc1ccc(S(=O)(=O)N(CC(=O)NCC2CCCO2)c2ccc(Cl)cc2)cc1 (stereo not shown)  -36.1%
81. CN(C)CCN(C(=O)c1ccc(S(=O)(=O)N(C)C)cc1)c1nc2cc3c(cc2s1)OCCO3.Cl  -40.7%
82. Brc1ccc(-c2nnc3n2-c2ccccc2CC3)cc1  -41.3%
83. Cc1ccc(S(=O)(=O)Nc2ccc3c(c2)nc(CCN2CCCC2)n3C)cc1  -42.5%
84. CCN1CCCC1CNC(=O)Cn1cnc2ccc(S(=O)(=O)N3CCC(C)CC3)cc2c1=O (stereo not shown)  -47.7%
85. CCN(CC)CCn1c(N)c(S(=O)(=O)c2ccccc2)c2nc3ccccc3nc21  -49.4%
86. Cc1nc2ccccn2c1C(=O)N/N=C/c1ccc(CNC(=O)C(=O)Nc2ccccc2)o1  -50.3%
87. Cc1ccc(C(=O)N/C(=C\c2cccs2)C(=O)NCCCN2CCOCC2)cc1  -61.4%
88. O=C(CSc1nnc(-c2ccco2)c(-c2ccco2)n1)Nc1ccccc1  -75.2%
